Assay results reported in the supplement of paper PMC8728848.
The list shows a part of the results.

Legend:
Experiment in all cases: glycan array binding signal (z-score within array); higher = stronger binding
Details in all cases: glycan notation: IUPAC condensed, linker removed
[1] = target: Neu5Ac(a2-3)Gal(b1-4)Glc
Outline: (§1)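 Glycan array binding is given as a within-array Z-score, which can be read as non-binding when negative. The arrays, 3228 of them, came from the Consortium for Functional Glycomics database and were retained only where the protein sequence was available. Z-scores were averaged across arrays of the same protein sequence at different concentrations or buffers and across linkers.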

[2] = target: Neu5Ac(a2-3)Gal(b1-4)GlcNAc
Outline: as §1

[3] = target: Neu5Ac(a2-3)Gal(b1-4)GlcNAc(b1-2)Man
Outline: as §1

[4] = target: Neu5Ac(a2-3)Gal(b1-4)GlcNAc(b1-2)Man(a1-3)[GlcNAc(b1-2)Man(b1-4)GlcNAc(b1-2)Man(a1-6)]Man(b1-4)GlcNAc(b1-4)GlcNAc
Outline: as §1

[5] = target: Neu5Ac(a2-3)Gal(b1-4)GlcNAc(b1-2)Man(a1-3)[GlcNAc(b1-4)][Neu5Ac(a2-3)Gal(b1-4)GlcNAc(b1-2)Man(a1-6)]Man(b1-4)GlcNAc(b1-4)GlcNAc
Outline: as §1

[6] = target: Neu5Ac(a2-3)Gal(b1-4)GlcNAc(b1-2)Man(a1-3)[Neu5Ac(a2-3)Gal(b1-4)GlcNAc(b1-2)Man(a1-6)]Man(b1-4)GlcNAc(b1-4)GlcNAc
Outline: as §1

[7] = target: Neu5Ac(a2-3)Gal(b1-4)GlcNAc(b1-2)Man(a1-3)[Neu5Ac(a2-3)Gal(b1-4)GlcNAc(b1-2)Man(a1-6)]Man(b1-4)GlcNAc(b1-4)[Fuc(a1-6)]GlcNAc
Outline: as §1

[8] = target: Neu5Ac(a2-3)Gal(b1-4)GlcNAc(b1-2)Man(a1-3)[Neu5Ac(a2-6)Gal(b1-4)GlcNAc(b1-2)Man(a1-6)]Man(b1-4)GlcNAc(b1-4)GlcNAc
Outline: as §1

[9] = target: Neu5Ac(a2-3)Gal(b1-4)GlcNAc(b1-2)[Neu5Ac(a2-3)Gal(b1-4)GlcNAc(b1-4)]Man(a1-3)[GlcNAc(b1-4)][Neu5Ac(a2-3)Gal(b1-4)GlcNAc(b1-2)[Neu5Ac(a2-3)Gal(b1-4)GlcNAc(b1-6)]Man(a1-6)]Man(b1-4)GlcNAc(b1-4)GlcNAc
Outline: as §1

[10] = target: Neu5Ac(a2-3)Gal(b1-4)GlcNAc(b1-2)[Neu5Ac(a2-3)Gal(b1-4)GlcNAc(b1-4)]Man(a1-3)[GlcNAc(b1-4)][Neu5Ac(a2-3)Gal(b1-4)GlcNAc(b1-4)Man(a1-6)]Man(b1-4)GlcNAc(b1-4)GlcNAc
Outline: as §1

[11] = target: Neu5Ac(a2-3)Gal(b1-4)GlcNAc(b1-2)[Neu5Ac(a2-3)Gal(b1-4)GlcNAc(b1-6)]Man(a1-6)[Neu5Ac(a2-3)Gal(b1-4)GlcNAc(b1-2)Man(a1-3)]Man(b1-4)GlcNAc(b1-4)GlcNAc
Outline: as §1

[12] = target: Neu5Ac(a2-3)Gal(b1-4)GlcNAc(b1-2)[Neu5Ac(a2-3)Gal(b1-4)GlcNAc(b1-6)]Man(a1-6)[Neu5Ac(a2-3)Gal(b1-4)GlcNAc(b1-2)Man(a1-3)][GlcNAc(b1-4)]Man(b1-4)GlcNAc(b1-4)GlcNAc
Outline: as §1

[13] = target: Neu5Ac(a2-3)Gal(b1-4)GlcNAc(b1-3)Gal
Outline: as §1

[14] = target: Neu5Ac(a2-3)Gal(b1-4)GlcNAc(b1-3)Gal(b1-3)GlcNAc
Outline: as §1

[15] = target: Neu5Ac(a2-3)Gal(b1-4)GlcNAc(b1-3)Gal(b1-4)Glc
Outline: as §1

[16] = target: Neu5Ac(a2-3)Gal(b1-4)GlcNAc(b1-3)Gal(b1-4)GlcNAc
Outline: as §1

[17] = target: Neu5Ac(a2-3)Gal(b1-4)GlcNAc(b1-3)Gal(b1-4)GlcNAc(b1-2)Man(a1-3)[Neu5Ac(a2-3)Gal(b1-4)GlcNAc(b1-3)Gal(b1-4)GlcNAc(b1-2)Man(a1-6)]Man(b1-4)GlcNAc(b1-4)GlcNAc
Outline: as §1

[18] = target: Neu5Ac(a2-3)Gal(b1-4)GlcNAc(b1-3)Gal(b1-4)GlcNAc(b1-3)Gal(b1-4)GlcNAc
Outline: as §1

[19] = target: Neu5Ac(a2-3)Gal(b1-4)GlcNAc(b1-3)Gal(b1-4)GlcNAc(b1-3)Gal(b1-4)GlcNAc(b1-2)Man(a1-3)[Neu5Ac(a2-3)Gal(b1-4)GlcNAc(b1-3)Gal(b1-4)GlcNAc(b1-3)Gal(b1-4)GlcNAc(b1-2)Man(a1-6)]GalNAc
Outline: as §1

[20] = target: Neu5Ac(a2-3)Gal(b1-4)GlcNAc(b1-3)Gal(b1-4)GlcNAc(b1-3)GalNAc
Outline: as §1

[21] = target: Neu5Ac(a2-3)Gal(b1-4)GlcNAc(b1-3)Gal(b1-4)GlcNAc(b1-3)[Neu5Ac(a2-3)Gal(b1-4)GlcNAc(b1-3)Gal(b1-4)GlcNAc(b1-6)]GalNAc
Outline: as §1

[22] = target: Neu5Ac(a2-3)Gal(b1-4)GlcNAc(b1-3)Gal(b1-4)GlcNAc(b1-6)[Gal(b1-3)]GalNAc
Outline: as §1

[23] = target: Neu5Ac(a2-3)Gal(b1-4)GlcNAc(b1-3)Gal(b1-4)[Fuc(a1-3)]GlcNAc
Outline: as §1

[24] = target: Neu5Ac(a2-3)Gal(b1-4)GlcNAc(b1-3)GalNAc
Outline: as §1

[25] = target: Neu5Ac(a2-3)Gal(b1-4)GlcNAc(b1-3)[Neu5Ac(a2-3)Gal(b1-4)GlcNAc(b1-6)]GalNAc
Outline: as §1

[26] = target: Neu5Ac(a2-3)Gal(b1-4)GlcNAc(b1-6)GalNAc
Outline: as §1

[27] = target: Neu5Ac(a2-3)Gal(b1-4)GlcNAc(b1-6)GalNAc(a1-3)Gal(b1-4)Glc
Outline: as §1

[28] = target: Neu5Ac(a2-3)Gal(b1-4)GlcNAc(b1-6)[Gal(b1-3)]GalNAc
Outline: as §1

[29] = target: Neu5Ac(a2-3)Gal(b1-4)GlcNAc(b1-6)[Neu5Ac(a2-3)Gal(b1-3)]GalNAc
Outline: as §1

[30] = target: Neu5Ac(a2-3)Gal(b1-4)GlcNAc6S
Outline: as §1

[31] = target: Neu5Ac(a2-3)Gal(b1-4)GlcNAc6S(b1-3)Gal6S(b1-3)GlcNAc6S
Outline: as §1

[32] = target: Neu5Ac(a2-3)Gal(b1-4)[3dFuc(a1-3)]GlcNAc(b1-3)Gal
Outline: as §1

[33] = target: Neu5Ac(a2-3)Gal(b1-4)[4dFuc(a1-3)]GlcNAc(b1-3)Gal
Outline: as §1

[34] = target: Neu5Ac(a2-3)Gal(b1-4)[6dTal(a1-3)]GlcNAc(b1-3)Gal
Outline: as §1

[35] = target: Neu5Ac(a2-3)Gal(b1-4)[Fuc(a1-3)]Glc
Outline: as §1

[36] = target: Neu5Ac(a2-3)Gal(b1-4)[Fuc(a1-3)]GlcNAc
Outline: as §1

[37] = target: Neu5Ac(a2-3)Gal(b1-4)[Fuc(a1-3)]GlcNAc(b1-2)Man
Outline: as §1

[38] = target: Neu5Ac(a2-3)Gal(b1-4)[Fuc(a1-3)]GlcNAc(b1-3)Gal
Outline: as §1

[39] = target: Neu5Ac(a2-3)Gal(b1-4)[Fuc(a1-3)]GlcNAc(b1-3)Gal(b1-4)Glc
Outline: as §1

[40] = target: Neu5Ac(a2-3)Gal(b1-4)[Fuc(a1-3)]GlcNAc(b1-3)Gal(b1-4)GlcNAc
Outline: as §1

[41] = target: Neu5Ac(a2-3)Gal(b1-4)[Fuc(a1-3)]GlcNAc(b1-3)Gal(b1-4)[Fuc(a1-3)]GlcNAc(b1-3)Gal(b1-4)Glc
Outline: as §1

[42] = target: Neu5Ac(a2-3)Gal(b1-4)[Fuc(a1-3)]GlcNAc(b1-3)Gal(b1-4)[Fuc(a1-3)]GlcNAc(b1-3)Gal(b1-4)[Fuc(a1-3)]GlcNAc
Outline: as §1

[43] = target: Neu5Ac(a2-3)Gal(b1-4)[Fuc(a1-3)]GlcNAc(b1-3)GalNAc
Outline: as §1

[44] = target: Neu5Ac(a2-3)Gal(b1-4)[Fuc(a1-3)]GlcNAc(b1-4)GalNAc(b1-3)Gal(b1-4)Glc
Outline: as §1

[45] = target: Neu5Ac(a2-3)Gal(b1-4)[Fuc(a1-3)]GlcNAc(b1-6)Gal(b1-4)Glc
Outline: as §1

B1: CLEC5A (Homo sapiens), Q9NY25 (protein)
chain: MNWHMIISGLIVVVLKVVGMTLFLLYFPQIFNKSNDGFTTTRSYGTVSQIFGSSSPSPNGFITTRSYGTVCPKDWEFYQARCFFLSTSESSWNESRDFCKGKGSTLAIVNTPEKLKFLQDITDAEKYFIGLIYHREEKRWRWINNSVFNGNVTNQNQNFNCATIGLTKTFDAASCDISYRRICEKNAK
glycan array binding signal (z-score) [1]: -0.141
glycan array binding signal (z-score) [2]: -0.233
glycan array binding signal (z-score) [3]: 0.058
glycan array binding signal (z-score) [4]: -0.008
glycan array binding signal (z-score) [5]: -0.191
glycan array binding signal (z-score) [6]: 0.065
glycan array binding signal (z-score) [7]: -0.192
glycan array binding signal (z-score) [8]: 0.127
glycan array binding signal (z-score) [9]: 0.064
glycan array binding signal (z-score) [10]: -0.034
glycan array binding signal (z-score) [11]: 0.192
glycan array binding signal (z-score) [12]: -0.191
glycan array binding signal (z-score) [13]: -0.199
glycan array binding signal (z-score) [14]: -0.158
glycan array binding signal (z-score) [15]: -0.32
glycan array binding signal (z-score) [16]: -0.395
glycan array binding signal (z-score) [17]: -0.094
glycan array binding signal (z-score) [18]: -0.3
glycan array binding signal (z-score) [19]: 0.036
glycan array binding signal (z-score) [20]: -0.176
glycan array binding signal (z-score) [21]: -0.109
glycan array binding signal (z-score) [22]: -0.156
glycan array binding signal (z-score) [23]: 0.024
glycan array binding signal (z-score) [24]: 0.042
glycan array binding signal (z-score) [25]: -0.183
glycan array binding signal (z-score) [26]: 0.007
glycan array binding signal (z-score) [27]: -0.32
glycan array binding signal (z-score) [28]: -0.337
glycan array binding signal (z-score) [29]: -0.122
glycan array binding signal (z-score) [30]: -0.182
glycan array binding signal (z-score) [31]: -0.32
glycan array binding signal (z-score) [32]: -0.32
glycan array binding signal (z-score) [33]: 1.51
glycan array binding signal (z-score) [34]: 1.13
glycan array binding signal (z-score) [35]: 0.21
glycan array binding signal (z-score) [36]: -0.2
glycan array binding signal (z-score) [37]: -0.11
glycan array binding signal (z-score) [38]: -0.337
glycan array binding signal (z-score) [39]: 0.114
glycan array binding signal (z-score) [40]: 0.317
glycan array binding signal (z-score) [41]: -0.32
glycan array binding signal (z-score) [42]: -0.471
glycan array binding signal (z-score) [43]: 1.67
glycan array binding signal (z-score) [44]: -0.32
glycan array binding signal (z-score) [45]: -0.32
